Some of the results follow. Values were computed here from the reads of four pooled replicates and scatter widely.

We go through 146 sequences from the BET-seq Pho4 binding data (Le et al. 2018).

This assay concerns the target T1, Pho4 (S. cerevisiae) (UniProt P07270).
T1 sequence: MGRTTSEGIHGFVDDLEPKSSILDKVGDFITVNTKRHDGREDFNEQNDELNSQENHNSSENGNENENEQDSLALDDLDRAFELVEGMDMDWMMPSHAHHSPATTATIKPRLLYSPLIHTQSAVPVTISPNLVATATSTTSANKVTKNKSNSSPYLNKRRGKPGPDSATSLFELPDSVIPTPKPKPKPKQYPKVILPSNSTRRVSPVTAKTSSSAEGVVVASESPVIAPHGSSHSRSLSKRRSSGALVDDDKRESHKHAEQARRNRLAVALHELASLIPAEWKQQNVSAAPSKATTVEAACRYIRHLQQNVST
As to the kind of experiment: relative binding free energy (BET-seq); higher = weaker binding. As to conditions: reference: library average.
Turning to TGCTGCACGTGTTGGG, the “relative binding free energy” value was 0.09 kcal/mol.
With TATTTCACGTGGGAGC the figure was 0.34 kcal/mol; with AAGTTCACGTGGTATT, 0.15 kcal/mol; with TTGAGCACGTGAGGAC, 0.44 kcal/mol.
With AGGTACACGTGGGCTA the figure was -0.09 kcal/mol; with TCTATCACGTGGTTGT, 0.15 kcal/mol.
Take AGTAGCACGTGGTAAT: the “relative binding free energy” value was -0.19 kcal/mol.
With GTTTGCACGTGGGCGG the figure was -0.04 kcal/mol; with CTTTTCACGTGTATGG, 0.32 kcal/mol; with TGCTTCACGTGGTTGT, 0.3 kcal/mol.
With AAAGTCACGTGGAGGA the figure was 0.07 kcal/mol.
In the case of GGGGACACGTGATGCA, the “relative binding free energy” value turned out to be 0.13 kcal/mol.
Regarding TCTATCACGTGTAGTT, the “relative binding free energy” value was determined as 0.26 kcal/mol.
With TAGGGCACGTGCATGG the figure was -0.26 kcal/mol.
As to GGTATCACGTGTTTCA, the “relative binding free energy” value worked out at 0.23 kcal/mol.
Under GCGATCACGTGCGTGG stands 0.15 kcal/mol; under GGTTGCACGTGTCGGC, 0.04 kcal/mol; under TTTGACACGTGGAGGG, -0.02 kcal/mol.
For GGGGTCACGTGAATGA, the “relative binding free energy” value came to 0.35 kcal/mol.
With CGGGTCACGTGAATAG the figure was 0.25 kcal/mol; with TGTTACACGTGGAGGA, 0.09 kcal/mol; with AGGACCACGTGTCGGG, 0.07 kcal/mol.
Under GGCGTCACGTGGTTAT stands 0.07 kcal/mol; under ATGGTCACGTGGGGTT, 0.04 kcal/mol; under AAGGACACGTGATTTA, 0.24 kcal/mol.
On to AGAACCACGTGAGGTT, for which the “relative binding free energy” value came out at 0.4 kcal/mol.
Under ACTGGCACGTGTAGTT stands -0.08 kcal/mol; under TTTCGCACGTGGTATT, -0.15 kcal/mol.
Consider TGACACACGTGGGTGG, for which the “relative binding free energy” value was -0.16 kcal/mol.
Take GGTTTCACGTGTGCTC: the “relative binding free energy” value is 0.3 kcal/mol.
As for TAATACACGTGGTATG, the “relative binding free energy” value is -0.08 kcal/mol.
As to GTGAACACGTGGAGTT, the “relative binding free energy” value was -0.03 kcal/mol.
As to TTGGTCACGTGAGTGC, the “relative binding free energy” value was 0.25 kcal/mol.
In the case of TCATTCACGTGGATTG, the “relative binding free energy” value stood at 0.18 kcal/mol.
With GCTTGCACGTGCTGTG the figure was -0.01 kcal/mol.
Take GGGTACACGTGTGCAT: the “relative binding free energy” value was determined as 0.1 kcal/mol.
In the case of TAGTGCACGTGTATGG, the “relative binding free energy” value is 0.06 kcal/mol.
TCAGTCACGTGTGATG: the “relative binding free energy” value was found to be 0.17 kcal/mol.
Under ATTGTCACGTGGTTGG stands 0.01 kcal/mol; under TGTGTCACGTGCTTGG, 0.05 kcal/mol.
As for GTATTCACGTGTTTAG, the “relative binding free energy” value worked out at 0.18 kcal/mol.
Under GAAGGCACGTGGTATG stands -0.11 kcal/mol.
Under GAGTTCACGTGCATGG stands 0.4 kcal/mol.
Under TGTGTCACGTGGAATC stands 0.12 kcal/mol.
On to GGAAACACGTGGGGAT, for which the “relative binding free energy” value is -0.16 kcal/mol.
Under TTGTCCACGTGGGCGG stands -0.07 kcal/mol; under ATTGGCACGTGCGAAT, -0.13 kcal/mol; under TTAAACACGTGAGGAG, 0.31 kcal/mol.
On to CGTTACACGTGGCGGT, for which the “relative binding free energy” value is 0.18 kcal/mol.
With GGTTGCACGTGGAATA the figure was 0.02 kcal/mol; with ATTATCACGTGATCGT, 0.26 kcal/mol.
Under ACTGACACGTGAGTGG stands 0.27 kcal/mol.
With GTTTACACGTGAAGGT the figure was 0.45 kcal/mol.
In the case of ACGTTCACGTGAGCGG, the “relative binding free energy” value came to 0.34 kcal/mol.
In the case of TGATCCACGTGAGGGA, the “relative binding free energy” value came out at 0.22 kcal/mol.
Under GTTAGCACGTGGAGAA stands 0.07 kcal/mol; under GTTTTCACGTGGTAGC, 0.33 kcal/mol; under AAAGGCACGTGTGAGT, -0.03 kcal/mol.
With TATGTCACGTGCTGTT the figure was 0.14 kcal/mol; with AGTCACACGTGGTATG, -0.07 kcal/mol.
With TTTATCACGTGTAGAC the figure was 0.24 kcal/mol.
For GGCGGCACGTGTCAGT, the “relative binding free energy” value is 0.05 kcal/mol.
Turning to TTTTTCACGTGTGCTA, the “relative binding free energy” value stood at 0.21 kcal/mol.
With GCTGACACGTGGGTGG the figure was -0.05 kcal/mol; with ATTGTCACGTGGGGAA, 0.11 kcal/mol; with ATAACCACGTGTGTTG, -0.06 kcal/mol.
With CGTCTCACGTGGGTGG the figure was 0.02 kcal/mol; with TGTTTCACGTGCTGTT, 0.26 kcal/mol; with ATAATCACGTGATAGT, 0.22 kcal/mol.
With GGGACCACGTGGGGTA the figure was -0.14 kcal/mol; with GGCGTCACGTGGTCAG, 0.1 kcal/mol; with CGTATCACGTGTTGAT, 0 kcal/mol.
For GTAGACACGTGATGCG, the “relative binding free energy” value came to 0.15 kcal/mol.
For the sequence GTGGACACGTGTGACT, the “relative binding free energy” value worked out at 0.06 kcal/mol.
Under GAATTCACGTGTTGTA stands 0.34 kcal/mol.
Turning to CGTTCCACGTGTGGGT, the “relative binding free energy” value was 0.08 kcal/mol.
Turning to TATGTCACGTGGGCTC, the “relative binding free energy” value is -0.1 kcal/mol.
With GAAAACACGTGGGAGG the figure was 0.12 kcal/mol.
For the sequence TATAACACGTGGAATT, the “relative binding free energy” value is 0.1 kcal/mol.
Turning to CTATACACGTGGTTTT, the “relative binding free energy” value is 0.03 kcal/mol.
For TTAGTCACGTGGTACT, the “relative binding free energy” value is 0.03 kcal/mol.
Turning to ATCGTCACGTGAGAGG, the “relative binding free energy” value was 0.3 kcal/mol.
Take ACGTGCACGTGATTTT: the “relative binding free energy” value was found to be 0.04 kcal/mol.
For ATGGACACGTGCCGGG, the “relative binding free energy” value turned out to be 0.02 kcal/mol.
For the sequence GCGGGCACGTGTTGGA, the “relative binding free energy” value was -0.13 kcal/mol.
As for GGGTCCACGTGTCTGT, the “relative binding free energy” value came out at 0.14 kcal/mol.
On to TGACACACGTGTGGGC, for which the “relative binding free energy” value is 0.09 kcal/mol.
With CTTGTCACGTGGGAGC the figure was 0.04 kcal/mol.
With GTCATCACGTGGGGGC the figure was 0.12 kcal/mol; with CGTAGCACGTGGTGTC, -0.12 kcal/mol; with TCGGACACGTGTTATG, 0.13 kcal/mol.
Turning to TCTTGCACGTGGAGTG, the “relative binding free energy” value is -0.12 kcal/mol.
With CCGGGCACGTGGGCAG the figure was -0.2 kcal/mol; with GGTGGCACGTGAGCAT, 0.16 kcal/mol; with GCGTTCACGTGTGGTG, 0.34 kcal/mol.
Turning to TAGCGCACGTGGGATT, the “relative binding free energy” value is -0.24 kcal/mol.
With ATATGCACGTGTGGCA the figure was -0.07 kcal/mol; with CTTTTCACGTGATCTG, 0.34 kcal/mol.
As to AGTTGCACGTGTCGGC, the “relative binding free energy” value stood at 0.1 kcal/mol.
On to ATCGTCACGTGGAAGT, for which the “relative binding free energy” value was 0.09 kcal/mol.
As for GAGTTCACGTGTAGAG, the “relative binding free energy” value was found to be 0.31 kcal/mol.
Regarding GCTGGCACGTGGGGCC, the “relative binding free energy” value is -0.02 kcal/mol.
TAAGTCACGTGTAGGC: the “relative binding free energy” value is 0.09 kcal/mol.
With CGCGTCACGTGATGTG the figure was 0.13 kcal/mol.
With CTATACACGTGGTGTG the figure was -0.13 kcal/mol; with GGTTACACGTGTGGAT, 0.28 kcal/mol; with ATGGTCACGTGTTGTT, 0.12 kcal/mol.
With TTGAGCACGTGCCGTA the figure was -0.04 kcal/mol; with AATATCACGTGTTTTA, 0.07 kcal/mol; with CGATTCACGTGGGGTA, 0.13 kcal/mol.
As to TAGGACACGTGGATGT, the “relative binding free energy” value is -0.12 kcal/mol.
With TGTACCACGTGGTGGT the figure was -0.15 kcal/mol; with CGTGACACGTGGTTGG, 0.04 kcal/mol.
With AGGTACACGTGATGAA, the “relative binding free energy” value is 0.24 kcal/mol.
Under GGTTTCACGTGTGGTT stands 0.38 kcal/mol.
Under TAGGTCACGTGTGTAG stands 0.1 kcal/mol.
Consider GTTATCACGTGAGAGG, for which the “relative binding free energy” value worked out at 0.26 kcal/mol.
As to GTAGTCACGTGCAGTA, the “relative binding free energy” value turned out to be 0.11 kcal/mol.
With CTTATCACGTGAATGT the figure was 0.28 kcal/mol; with TCTGTCACGTGTTTTC, 0.06 kcal/mol.
With GTTCCCACGTGTGGGT the figure was 0.02 kcal/mol; with TTGTGCACGTGATATC, 0.03 kcal/mol.
With GAACGCACGTGGGTAT the figure was -0.07 kcal/mol.
For GGTGCCACGTGGGGCT, the “relative binding free energy” value is -0.18 kcal/mol.
With TTTAGCACGTGCCTGT the figure was -0.13 kcal/mol.
With GTGGTCACGTGAGCTA the figure was 0.32 kcal/mol.
For TGTGACACGTGAGAAG, the “relative binding free energy” value turned out to be 0.05 kcal/mol.
Turning to TTTCGCACGTGGGGTC, the “relative binding free energy” value was -0.29 kcal/mol.
Under CGTGTCACGTGAAGAG stands 0.22 kcal/mol.
Under GACAGCACGTGGCGGG stands -0.17 kcal/mol; under CTGAGCACGTGTATTG, 0.01 kcal/mol; under ATCGTCACGTGGGTGC, 0.14 kcal/mol.
Consider TGGGACACGTGCTCGG, for which the “relative binding free energy” value is 0.03 kcal/mol.
Take ATTTGCACGTGGCTAG: the “relative binding free energy” value amounted to 0.01 kcal/mol.
Under TGATGCACGTGCATGT stands -0.16 kcal/mol; under TGTAACACGTGGGAGT, -0.04 kcal/mol.
With TGGGTCACGTGCGAGT the figure was 0.05 kcal/mol.
With TTGAGCACGTGGTGGG the figure was -0.16 kcal/mol; with CTAAGCACGTGTTAGT, -0.09 kcal/mol; with GATGTCACGTGGTAGT, 0.12 kcal/mol.
With CGGTTCACGTGGGTGC, the “relative binding free energy” value was 0.14 kcal/mol.
Under TGTCGCACGTGGGGTT stands -0.26 kcal/mol; under AGACTCACGTGAGGAG, 0.48 kcal/mol.
Under TTAGGCACGTGTGCTC stands -0.13 kcal/mol.
Under TTGTACACGTGTCAAT stands 0.08 kcal/mol.
Regarding GAATACACGTGATTGT, the “relative binding free energy” value came out at 0.18 kcal/mol.
